In test [1] the target is T1, FcRn receptor (biotinylated, AlphaLisa binding kit Perkin Elmer #AL3095C) (UniProt P55899 partial chain; P61769 partial chain, biotinylated (sites not given)). In words: AlphaLISA FcRn binding assay.
For test [2], the target named is T2, immunoglobulin gamma Fc receptor 1 (FcγR1) (biotinylated, AlphaLisa binding kit Perkin Elmer #AL3081C) (UniProt P12314 16-288, biotinylated (sites not given)).
T2 chain: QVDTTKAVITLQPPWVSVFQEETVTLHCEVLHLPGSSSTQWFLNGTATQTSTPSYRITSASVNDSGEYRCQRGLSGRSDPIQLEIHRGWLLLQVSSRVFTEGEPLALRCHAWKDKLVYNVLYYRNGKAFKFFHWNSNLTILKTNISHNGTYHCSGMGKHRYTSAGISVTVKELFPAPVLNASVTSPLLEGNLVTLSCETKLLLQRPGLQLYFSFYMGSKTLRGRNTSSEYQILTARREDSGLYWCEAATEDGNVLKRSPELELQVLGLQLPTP
Description: AlphaLISA FcγR1 binding assay.

Test [3] deals with T1, FcRn receptor (biotinylated, AlphaLisa …). Description: AlphaLISA FcRn binding assay. This is another data set of the same source.
Test [4] deals with T2, immunoglobulin gamma Fc receptor 1 …. Description: AlphaLISA FcγR1 binding assay.

Where “and” joins values, the source holds several entries; their conditions need not be identical. Identical values can stand only once. Like-named read-outs stand apart in the source and are kept apart here.

B1: Antibody No. 173.4 (antibody)
light: DIQMTQSPSSLSASVGDRVTITCQASQDITNYLTWYQQKPGNAPKLLIYDASNLETGVPSRFSGSGSGTDFTFTINSLQPEDVATYFCQQYDNLPTFGGGTKVEIKRTVAAPSVFIFPPSDEQLKSGTASVVCLLNNFYPREAKVQWKVDNALQSGNSQESVTEQDSKDSTYSLSSTLTLSKADYEKHKVYACEVTHQGLSSPVTKSFNRGEC
heavy: QLQLQESGPGLVKPSETLSLTCIVSGGSISSSGYYWGWIRQPPGKGLEWIGSIFYSGNTHYNPSLKSRVTIPVDTSKNQFSLKLSSVTAADSAVYYCARRDILTGPFDYWGQGTLVTVSSAASTKGPSVFPLAPCSRSTSESTAALGCLVKDYFPEPVTVSWNSGALTSGVHTFPAVLQSSGLYSLSSVVTVPSSSLGTKTYTCNVDHKPSNTKVDKRV[human IgG4 Fc not listed]
Take B1: the 50% effective concentration (EC50) in test [1] was 11.8 nM and 1.76 µg/mL; in test [2] it was 48 nM and 7.23 µg/mL.

B2: Ab No. 246.4 (WT) (antibody)
chain 1: MGWSCIILFLVATATGVHSQVQLQESGPGLVKPSETLSLTCTVSGGSISSYYWSWIRQPPGKGLEWIGYIYYSGSTNYNPSLKSRVTISVDTSKSQFSLKLSSVTAADTAVYYCARDIPAFAFDIWGQGTMVIVSSASTKGPSVFPLAPCSRSTSESTAALGCLVKDYFPEPVTVSWNSGALTSGVHTFPAVLQSSGLYSLSSVVTVPSSSLGTKTYTCNVDHKPSNTKVDKRV[human IgG4 Fc with S228P (EU numbers) not listed]
chain 2: MGWSCIILFLVATATGVHSEIVLTQSPATLSLSPGERATLSCRASQSVSYYLAWYQQKPGQAPRLLIYDAFNRATGIPARFSGSGSGTDFTLTISSLEPEDFAVYYCQQRINWPLTFGGGTKVEIKRTVAAPSVFIFPPSDEQLKSGTASVVCLLNNFYPREAKVQWKVDNALQSGNSQESVTEQDSKDSTYSLSSTLTLSKADYEKHKVYACEVTHQGLSSPVTKSFNRGEC
For the molecule B2, the concentration giving a half-maximal response (EC50) in test [3] is 6.1 nM; in test [4], 9.7 nM and 1.46 µg/mL.

These data come from patent US20240132593A1 (published 2024).
